Whole data set: some 33,000 sequences, median “E-score (-0.5 to 0.5)” near -0.021, cut for the highest 2% near 0.32. The list shows a part of the results.
The sequences below were run against T1, Zap1 (UniProt P47043) (assay: PBM E-score (8-mer binding enrichment) (E-score (-0.5 to 0.5)); higher = stronger / more preferred TF binding; most listed sequences are background and not binding sites). Conditions: protein concentration: 200 nM; construct: GST-full length.
T1 sequence: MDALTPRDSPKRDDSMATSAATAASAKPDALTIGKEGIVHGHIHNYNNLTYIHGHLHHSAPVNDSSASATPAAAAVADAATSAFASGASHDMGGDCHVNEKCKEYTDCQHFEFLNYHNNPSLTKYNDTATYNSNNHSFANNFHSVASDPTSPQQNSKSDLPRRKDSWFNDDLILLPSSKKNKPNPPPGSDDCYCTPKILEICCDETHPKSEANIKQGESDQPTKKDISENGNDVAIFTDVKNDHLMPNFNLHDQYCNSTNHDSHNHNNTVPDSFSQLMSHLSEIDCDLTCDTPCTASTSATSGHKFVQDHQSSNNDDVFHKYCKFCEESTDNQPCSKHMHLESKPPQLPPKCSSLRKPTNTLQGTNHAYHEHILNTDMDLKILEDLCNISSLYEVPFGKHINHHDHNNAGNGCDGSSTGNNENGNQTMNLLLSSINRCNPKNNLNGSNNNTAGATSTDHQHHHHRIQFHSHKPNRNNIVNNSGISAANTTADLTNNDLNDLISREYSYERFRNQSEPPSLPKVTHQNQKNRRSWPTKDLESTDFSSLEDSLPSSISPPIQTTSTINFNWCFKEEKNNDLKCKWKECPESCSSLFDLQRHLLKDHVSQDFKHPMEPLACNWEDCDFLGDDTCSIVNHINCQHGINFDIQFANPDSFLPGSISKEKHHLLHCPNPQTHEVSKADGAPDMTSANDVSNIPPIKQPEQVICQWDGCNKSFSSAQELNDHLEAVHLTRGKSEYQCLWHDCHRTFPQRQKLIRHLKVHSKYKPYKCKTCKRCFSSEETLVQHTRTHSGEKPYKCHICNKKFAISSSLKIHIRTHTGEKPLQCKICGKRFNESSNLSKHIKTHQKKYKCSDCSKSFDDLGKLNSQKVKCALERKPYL
Procedure, shortened: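 The E-score, a modified Wilcoxon-Mann-Whitney statistic, was computed by the Universal PBM Analysis Suite for every ungapped eight-base word pooled with its reverse complement. Scans behind it were normalised with masliner after bound GST-tagged yeast transcription factors were detected with fluorescent anti-GST. The proteins, at about 100-200 nM, had been applied to universal all-10-mer Agilent arrays made double-stranded by primer extension.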

| Sequence | PBM E-score |
| --- | --- |
| CACGTTAC | 0.0657 |
| CTTACTTA | 0.0622 |
| CTACACTA | -0.036 |
| GGTGTAAA | -0.00155 |
| ATAGTTAC | 0.114 |
| AACCAACC | 0.126 |
| ACAGGTCG | 0.0832 |
| AATTGTGG | 0.00368 |
| AAAAGGGC | 0.149 |
| AGGTAGAA | 0.0149 |
| CGAGTTGA | 0.0421 |
| GCGCATCA | -0.0115 |
| GCACGGAA | -0.302 |
| AAAGGTGC | -0.0887 |
| GGGACTAA | 0.0381 |
| AGCTGCTC | -0.219 |
| AAGTCCAA | 0.0986 |
| ATCGTACC | 0.0624 |
| CAGCTTAC | -0.00935 |
| CACGCAAA | -0.0296 |
| AATTTCCA | 0.0237 |
| GGTAGGCA | 0.00685 |

| Sequence | PBM E-score |
| --- | --- |
| TACAGGGA | -0.124 |
| AAGCGACC | -0.0943 |
| CGTCGGAC | -0.054 |
| AACGACCA | 0.119 |
| AGAACTGG | 0.0572 |
| GGGGGCTA | -0.298 |
| ATGCTTCA | -0.0368 |
| GGAGGACA | -0.176 |
| AATGGCAT | -0.0795 |
| AATACTGA | -0.0588 |
| GGACCAGA | 0.0948 |
| ACATACGG | -0.0375 |
| GGTCTAAA | 0.19 |
| CTCCACCA | -0.157 |
| TAAGACCA | 0.245 |
| CGAGCTGC | -0.163 |
| GAAACAAC | 0.069 |
| ACTTTCTA | 0.0335 |
| AGTCCCCG | -0.184 |
| AGTGAGAT | -0.203 |
| AATTGATC | -0.102 |
| GAAACACC | 0.164 |

| Sequence | PBM E-score |
| --- | --- |
| CCGCTGGC | -0.00629 |
| CATAAGGG | 0.274 |
| GCCCACTA | -0.221 |
| AGCCTATA | -0.0547 |
| AGGGTCGG | 0.126 |
| AGAGCACT | -0.0825 |
| CGGGTATA | 0.317 |
| ATGCGTAA | 0.0259 |
| TATACCCA | 0.0427 |
| CCCTTGCG | 0.00153 |
| AGTGTATC | 0.0414 |
| CGCAAGTC | -0.279 |
| CTACCCGA | 0.25 |
| ATGACCGA | 0.0244 |
| AGAGGCGG | 0.0791 |
| CGGGCACC | 0.0621 |
| AAACTCTG | 0.0245 |
| ATTTTCTA | 0.122 |
| GGTACCAA | 0.337 |
| AAAAGTTC | 0.124 |
| TAGTGAAA | 0.0363 |
| CCCTAGGC | -0.0419 |

| Sequence | PBM E-score |
| --- | --- |
| CGTACTAG | -0.128 |
| GGACCTTA | -0.00744 |
| CACTGTCC | -0.0413 |
| CATTTGAA | 0.0106 |
| CTCTCCGC | -0.24 |
| CTGCAACC | 0.187 |
| AACTGATA | -0.068 |
| CCCAGCCG | -0.107 |
| GTACTTTA | 0.104 |
| AATAGATG | 0.0253 |
| GTTAGTTA | 0.211 |
| CGTGCTGC | -0.101 |
| ACACTCGA | -0.109 |
| GCCGAGCC | -0.273 |
| CACGGGAC | -0.0821 |
| GCCCAAGC | -0.132 |
| AATGCGAC | -0.0561 |
| CTAAATTA | 0.103 |
| GCAGCCGC | -0.0832 |
| GCTTGGAC | -0.326 |
